# Measurements reported in PMC6919601, “Identification of Plasmodium dipeptidyl aminopeptidase allosteric inhibitors by high throughput screening” (PLoS ONE, 2019).
# Out of some 110,000 compounds screened, about 230 (0.21%) showed an effect of 50% or more. This is one part of the list.
# Biological target: DPAP1 (Plasmodium falciparum, UniProt Q8IIJ9)
# Test: primary screen, percent inhibition; read by cleavage of a fluorogenic dipeptide substrate; higher = more effect of the substance
# Parameters: species or system P. falciparum D10 trophozoite lysates; single well
# 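Also: 30 min substrate incubation versus DMSO and 10 µM JCP410 controls.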
# Sequence of DPAP1 (Q8IIJ9 whole entry, looked up): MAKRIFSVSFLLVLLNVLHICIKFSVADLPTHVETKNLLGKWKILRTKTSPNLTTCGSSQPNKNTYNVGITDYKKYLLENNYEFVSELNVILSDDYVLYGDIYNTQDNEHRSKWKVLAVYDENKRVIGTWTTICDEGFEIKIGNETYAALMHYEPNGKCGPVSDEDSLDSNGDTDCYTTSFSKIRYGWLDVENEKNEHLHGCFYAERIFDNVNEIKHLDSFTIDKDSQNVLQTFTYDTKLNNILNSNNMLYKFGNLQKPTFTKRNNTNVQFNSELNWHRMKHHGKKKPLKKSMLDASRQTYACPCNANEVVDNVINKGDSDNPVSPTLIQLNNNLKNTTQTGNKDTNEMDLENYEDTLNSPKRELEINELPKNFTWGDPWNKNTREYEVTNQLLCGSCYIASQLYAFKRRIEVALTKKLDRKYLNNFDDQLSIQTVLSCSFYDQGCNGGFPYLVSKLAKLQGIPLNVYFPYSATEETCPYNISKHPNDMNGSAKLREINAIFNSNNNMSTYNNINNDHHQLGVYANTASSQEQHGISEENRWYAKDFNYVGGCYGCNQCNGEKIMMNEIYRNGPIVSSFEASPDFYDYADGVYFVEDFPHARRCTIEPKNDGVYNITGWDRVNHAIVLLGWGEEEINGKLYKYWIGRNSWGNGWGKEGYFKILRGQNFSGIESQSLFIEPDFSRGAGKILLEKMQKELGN
row,Structure (SMILES),% Inhibition @ 10 uM [%]
1,COc1ccc(NC(=O)CN2C(=O)c3ccccc3S2(=O)=O)cc1Cl,-3.77
2,Cc1cccc(-n2nc3c(c2NC(=O)c2ccc4c(c2)OCO4)CS(=O)(=O)C3)c1C,2.65
3,COc1ccc(-c2ccccc2)cc1NCC[C@@H](C)CCC=C(C)C,1.9
4,CCOc1ccc(-c2cc(C(=O)NC(C)c3ccc4c(c3)OCCO4)[nH]n2)cc1 (stereo not shown),6.41
5,Cc1ccc(NC(=O)c2cc(S(=O)(=O)N3CCCCC3)c(Cl)cc2Cl)cc1,4.3
6,COc1cccc(CN2CCC(Cc3ccccc3)CC2)c1O,-2.95
7,C=CCSc1nnc(Cc2c(C)[nH]c3ccccc23)o1,-0.958
8,CC1=CC(C)(C)N(S(=O)(=O)c2ccc(C)cc2)c2ccccc21,-6.18
9,COc1ccc(S(=O)(=O)Nc2c(C)nn(Cc3c(F)cccc3Cl)c2C)cc1,1.96
10,CCOc1ccc(NC(=O)C2CC(=O)N(C(=N)N)C(=N)S2)cc1 (stereo not shown),-5.6
11,CCOc1ccccc1-n1c(CN2CCC(O)CC2)nc2ccccc2c1=O,5.17
12,O=C(NCCn1cccc1)c1cccc2ccccc12,-4.49
13,Cc1ccc2nc(NC(=O)C(CC(C)C)NS(=O)(=O)c3ccc4nc(C)sc4c3)sc2c1 (stereo not shown),-3.1
14,CCN(CC)CCN(C)Cc1ccccc1,2.22
15,CCN(Cc1ccccc1)C(=O)CSc1nc2nnc(C)c-2c(N)n1-c1cccc(C)c1,-3.93
16,CC1CCC(NCCCN2CCOCC2)C1 (stereo not shown),-3.42
17,CCOC(=O)C1=C(C)OC(N)=C(C#N)C1c1cccc(Cl)c1Cl (stereo not shown),-0.197
18,COc1ccc(NS(=O)(=O)c2ccc(NC(=O)Nc3ccc(Cl)cc3)cc2)cc1,4.83
19,CC(c1ccccc1)N1CCC(O)CC1 (stereo not shown),7.24
20,Cc1[nH]c2ccccc2c1C(=O)CCC(=O)O,-1.59
21,Cc1nnc2sc(-c3ccc4c(c3)OCO4)nn12,-1.07
22,CC(=O)Nc1ccc(S(=O)(=O)Nc2cccc(-c3cn4cccnc4n3)c2)cc1,-3.45
23,N=C1/C(=C\c2cccn2CCOc2ccc(Cl)cc2)C(=O)N=C2SC(N3CCCC3)=NN12,1.72
24,CCC(Sc1nncn2c1cc1occc12)C(=O)NCc1ccco1 (stereo not shown),0.616
25,COc1ccccc1C1CC2=NC(C)=C(C(=O)OC(C)C)C(c3coc4ccccc4c3=O)C2=C(O)C1 (stereo not shown),-1.17
26,CCN(CC)S(=O)(=O)c1cc(-c2nnc(-c3ccc(Br)cc3)o2)ccc1Cl,20.3
27,Cc1ccc2[nH]c3c(c2c1)CCOc1ccccc1-3,-4.3
28,CN(C)c1ccc2c(c1)OC(N)=C(C#N)C2c1cccs1 (stereo not shown),-3.85
